According to publication PMC4336329 (PLoS ONE, 2015):
In all, about 310,000 compounds went through this assay and about 14,000 (4.5%) showed an effect of 50% or more. The effect is printed as a negative number. Some of the results follow.

What follows are compounds tested against human ether-à-go-go-related gene (hERG) potassium channel (human, UniProt Q12809) (assay: primary screen, population patch clamp on CHO cells stably expressing hERG).
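Note: peak tail current of the secondary pulse compared with the same well before compound.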

Chain of human ether-à-go-go-related gene (hERG) potassium channel (Q12809 whole entry, looked up): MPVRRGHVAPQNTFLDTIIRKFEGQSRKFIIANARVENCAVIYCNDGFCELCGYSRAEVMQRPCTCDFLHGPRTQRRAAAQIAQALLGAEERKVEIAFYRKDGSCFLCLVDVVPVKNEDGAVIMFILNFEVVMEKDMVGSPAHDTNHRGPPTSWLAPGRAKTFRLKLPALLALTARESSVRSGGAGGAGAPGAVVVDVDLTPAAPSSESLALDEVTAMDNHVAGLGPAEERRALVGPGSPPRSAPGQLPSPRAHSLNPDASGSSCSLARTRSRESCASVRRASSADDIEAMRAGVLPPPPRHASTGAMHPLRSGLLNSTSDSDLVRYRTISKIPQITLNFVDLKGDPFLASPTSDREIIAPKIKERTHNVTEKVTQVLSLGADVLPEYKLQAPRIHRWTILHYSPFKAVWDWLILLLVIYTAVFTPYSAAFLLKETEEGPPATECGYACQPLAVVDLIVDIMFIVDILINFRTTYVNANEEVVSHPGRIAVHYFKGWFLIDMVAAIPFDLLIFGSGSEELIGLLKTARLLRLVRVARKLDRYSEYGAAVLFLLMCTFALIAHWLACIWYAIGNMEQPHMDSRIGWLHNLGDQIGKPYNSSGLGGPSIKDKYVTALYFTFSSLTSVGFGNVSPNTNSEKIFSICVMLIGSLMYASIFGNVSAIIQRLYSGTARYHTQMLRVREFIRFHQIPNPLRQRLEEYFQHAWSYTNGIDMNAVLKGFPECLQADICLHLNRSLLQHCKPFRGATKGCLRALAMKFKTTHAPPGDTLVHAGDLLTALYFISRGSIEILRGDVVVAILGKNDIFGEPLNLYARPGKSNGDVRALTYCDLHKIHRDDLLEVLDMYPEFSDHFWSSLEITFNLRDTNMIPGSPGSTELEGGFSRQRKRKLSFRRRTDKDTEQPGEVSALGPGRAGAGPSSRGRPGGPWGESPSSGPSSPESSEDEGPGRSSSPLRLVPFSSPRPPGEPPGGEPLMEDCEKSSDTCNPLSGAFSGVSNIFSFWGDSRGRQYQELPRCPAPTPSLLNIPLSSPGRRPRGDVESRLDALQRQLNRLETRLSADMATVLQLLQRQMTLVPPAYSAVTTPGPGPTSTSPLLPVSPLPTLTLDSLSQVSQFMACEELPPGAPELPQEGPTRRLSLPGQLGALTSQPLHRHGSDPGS

Compound | hERG current change (%, negative = inhibition) at 10uM
Cc1onc(-c2ccccc2Cl)c1C(=O)Nc1ccc(S(=O)(=O)NCC2CCCO2)cc1 (centres unmarked) | -10.5%
Cc1csc(-c2cnn(-c3ccccc3)c2NC(=O)c2ccc(C(F)(F)F)cc2)n1 | -15.6%
O=C(CSC1=NCCS1)N1CCCC1 | 15.1%
O=C(CNC(=O)[C@@H]1Cc2ccccc2CN1)NC1CCCC1 | 7.67%
c1ccc(CN2CN=C(Nc3nc4ccccc4s3)NC2)cc1 | -1.27%
COc1ccc(C2(O)CCN(Cc3nnnn3Cc3ccc(C)cc3)CC2)cc1 | -21.4%
COc1ccc(CNC(=O)CN(C(=O)CCC(=O)Nc2ccccn2)c2cccc(C)c2)cc1 | 9.3%
N#Cc1c(NCCCO)nc(-c2ccco2)c2c1CCCC2 | -9.6%
CC(C)[C@@H]1NC(=O)c2cc([N+](=O)[O-])cc(I)c2OCC[C@@H](C(N)=O)NC(=O)[C@H](CCC(=O)O)NC1=O | 2.02%
O=C(Nn1cnnc1)c1ccc(OC(F)(F)C(F)C(F)(F)F)cc1 (centres unmarked) | 21.3%
COc1ccccc1N(CC(=O)NC1CCCC1)C(=O)C1(C)CC(=O)N=C2C=CC(C)=CN21 (centres unmarked) | 12.5%
CCOC(=O)C1CCN(S(=O)(=O)c2cc(Br)cc3c2N(C(C)=O)C(C)C3)CC1 (centres unmarked) | -29.1%
O=C(NCC1OCCc2ccccc21)c1cc(COc2ccc(F)cc2Cl)on1 (centres unmarked) | 13.9%
CCS(=O)(=O)c1nc(S(=O)(=O)c2ccc(Cl)cc2)c(N2CCOCC2)s1 | 16.7%
Cc1cccc(C)c1NC(=O)C(c1ccc(Cl)cc1Cl)N1CCCCC1 (centres unmarked) | -4.37%
CCOC(=O)c1c(NC(=O)c2cc(C)oc2C)sc(C(=O)Nc2ccc(Cl)cc2)c1C | 21.9%
COc1ccc(CNC(=O)Cn2cc([N+](=O)[O-])nc2C)cc1 | 16.8%
COc1ccc(-c2ccc(SCC(=O)N3CCCC3)nn2)cc1OC | -5.82%
CC(C)CNC(=O)COC(=O)c1cc(S(=O)(=O)N2CCCCC2)ccc1N1CCOCC1 | -28.3%
Cc1cc(C)c(C)c(S(=O)(=O)N2CCN(C(=O)C3CSC4(C)CCC(=O)N34)CC2)c1C (centres unmarked) | -3.21%
Cc1c(C(=O)N2CCC(C(N)=O)CC2)sc(N)c1C#N | 2.54%
CC(C)c1ccc(NC(=O)CSc2nnc(-c3ccccn3)n2C)cc1 | -32.4%

Compound | hERG current change (%, negative = inhibition) at 10uM
O=C(CCc1nc2ccccc2[nH]1)NC1CCCCC1 | 11.8%
Cc1ccc(CCN2CC(C(=O)NC(C)C)CC2=O)cc1 (centres unmarked) | 12%
O=C(c1ccc(F)cc1)N1CCN(Cc2ccccc2Br)CC1 | -9.87%
O=C(Nc1ccccc1N1CCCC1)c1cccc(Cl)c1Cl | 15.7%
COc1ccc(C2(CNC(=O)C(=O)Nc3ccc(C)cc3)CCOCC2)cc1 | 11.2%
CCCC(=O)Nc1ccc(C(=O)N/N=C/c2ccc[nH]2)cc1 | 11%
CC(=O)N1CC2(C)CN(C(C)=O)CC(C)(C1)C2 | 23.8%
COc1ccc(NC(=O)CCN2CCN(S(=O)(=O)c3ccc(Cl)cc3)CC2)cc1 | -27.1%
COc1cc(N2CCCC2)c(OC)cc1C=O | 11.7%
CCOC(=O)CN1C(=O)C(Sc2n[nH]c(-c3ccc(C)cc3)n2)CCc2ccccc21 (centres unmarked) | -1.56%
CC(C)(C)OC(=O)[C@H](Cc1ccccc1)NC(=O)c1nc[nH]c1C(=O)N1CCN(c2ccccc2)CC1 | -2.89%
O=C(NCc1cccnc1)c1cc(C(=O)C2CC2)c[nH]1 | 15.2%
COc1ccc(S(=O)(=O)N(C)C)cc1NCC(=O)Nc1ccc(Br)cc1F | -14.6%
CCc1cc(C)c(O)c(CC)n1 | -4.65%
O=C1Nc2cc(Cl)c(Cl)cc2N(O)N1c1ccc(Cl)c(Cl)c1 | -2.91%
CC(=O)N1CCN(S(=O)(=O)c2cccc(C(=O)Nc3ccc4c(c3)CCC4)c2)CC1 | -36.6%
COc1ccccc1N(CC(=O)N(C)Cc1ccccc1)S(=O)(=O)c1cccs1 | -20.5%
O=C(OCc1cnc(Cl)s1)c1ccc(Cl)cc1 | -7.8%
Cc1[nH]n(-c2ccccc2)c(=O)c1N=Nc1cccc([N+](=O)[O-])c1 | 0.628%
Cc1ccc2nc(SCc3cccc([N+](=O)[O-])c3)nc(C)c2c1 | 1.55%
CSCCC(NC(N)=O)C(=O)NCc1cccc(Cl)c1 (centres unmarked) | 9.05%
Clc1cccc(CN2COc3c(cc(Cl)c4cccnc34)C2)c1 | 11.9%

Compound | hERG current change (%, negative = inhibition) at 10uM
O=C(CSc1ccccn1)Nc1nonc1[N+](=O)[O-] | -5.26%
O=C(c1ccc(CS(=O)c2ccccc2Cl)o1)N1CCN(c2ccccc2)CC1 (centres unmarked) | -38.2%
COc1ccc(S(=O)(=O)Nc2cc(S(=O)(=O)c3ccccc3)c(O)cc2C)cc1 | -5.41%
CCOc1ccc(C(C(=O)NCC2CCCO2)N(Cc2cccc(OC)c2)C(=O)c2snc(C(N)=O)c2N)cc1 (centres unmarked) | -39.1%
CCCCCn1c(CN2CCN(Cc3ccccc3)CC2)nc2c1c(=O)n(C)c(=O)n2C | -68%
Cl.OC1(c2ccc(F)cc2)CCN(Cc2ccccc2)C1 (centres unmarked) | -15.1%
COc1ccc(-c2noc(COc3ccc(Cl)c(C)c3)n2)cc1 | 2.81%
O=C(Nc1ccc(Cl)c(Cl)c1)C1=Cc2ccccc2OC1 | 8.41%
O=c1c(Cc2ccccc2)c(O)nc2n1CCS2 | 22%
CCOC(=O)[C@@H]1[C@H]2COc3cc(OC)ccc3[C@@H]2N2C(=O)N(c3ccc(OC)cc3)C(=O)[C@]12C | -3.61%
Cc1ccc(NC(=O)CSc2nnc(-c3ccc(S(=O)(=O)N4CCOCC4)cc3)n2C)cc1 | -22.2%
CCOc1cccc(-c2nnc3sc(-c4cc(OC)c(OC)c(OC)c4)nn23)c1 | -3.13%
CCOc1ccc(N(CC(=O)N/N=C/c2ccc(OC(C)C)cc2)S(C)(=O)=O)cc1 | -5.2%
CCC(=O)C1CCCN(C(=O)c2cccc(OC3CCN(S(C)(=O)=O)CC3)c2)C1 (centres unmarked) | 11.3%
CC(NC(=O)CCc1nnc(-c2ccccc2)o1)c1ccccc1 (centres unmarked) | 5.21%
NNC(=O)c1ccc(COc2ccc3ccccc3c2)o1 | 9.74%
C=CCNC(=O)c1ccc2c(c1)N(CC)C(=O)c1ccccc1S2 | -10.7%
NC(=O)COC(=O)c1ccc(-c2ccc(O)cc2)cc1 | 8.82%
CCCCN(c1ccccc1)S(=O)(=O)N(C)C | 7.53%
Cc1cc(C)c2nc(NNC(=O)c3ccc(S(=O)(=O)N4CC(C)CC(C)C4)cc3)sc2c1 (centres unmarked) | 7.37%
CC(C)C(=O)NCCn1ccc2ccccc21 | -13.4%
CCCOC(=O)c1ccc(-n2nnnc2SCC(=O)N2CCCCC2)cc1 | -3.98%

Compound | hERG current change (%, negative = inhibition) at 10uM
Cc1c(OC(C)C(=O)NCC2CCC(C(=O)O)CC2)ccc2c(-c3ccccc3)cc(=O)oc12 (centres unmarked) | 8%
CC(C)(C)c1ccccc1NC(=S)NCc1ccccc1 | 6.65%
CCNc1nc(OC)nc(N2CCC(Cc3ccccc3)CC2)n1 | -1.13%
Cc1ccccc1C(=O)N1CCC(C(=O)Nc2ccc3c(c2)OCO3)CC1 | 3.97%
Cn1ccnc1Sc1nc(Nc2cccc(Cl)c2)nc(N2CCOCC2)n1 | -36.7%
O=S(=O)(Cc1cc(NCc2ccccc2)nc(-c2ccncc2)n1)c1ccccc1 | 20.3%
CCC(=O)N(CCC(c1ccccc1)c1ccco1)Cc1cccs1 (centres unmarked) | -15.9%
Cc1cc(C)cc(C(=O)NC(CC(N)=O)c2ccc(NC3CCCCCCC3)c([N+](=O)[O-])c2)c1 (centres unmarked) | 1.06%
COc1ccc(Nc2cc(C)nc(N3CCOCC3)n2)cc1 | -12.2%
CCN(CC)CCOC(=O)c1ccc(NC(=O)CCCN2C(=O)/C(=C\c3cccs3)SC2=S)cc1 | -1.35%
CCOC(=O)c1cnc2c(OC)cccc2c1NCc1cccnc1 | -72.2%
CCOC(=O)CSc1nc2c([nH]c3ccccc32)c(=O)n1C | 16.9%
CCN(CC)C(=O)CSC1=C(C#N)C(c2cccs2)C=C(C)N1 (centres unmarked) | 14.1%
Cc1ccc(C)c(N2CCN(C(=O)CCNC(=O)Cn3ccc4ccccc4c3=O)CC2)c1 | -3.39%
CCN(C(=O)CN1C(=O)S/C(=C\c2ccc(Cl)cc2)C1=O)C1CCS(=O)(=O)C1 (centres unmarked) | -9.49%
CCOc1ccc(CCNC(=O)CCc2nnc3ccc(N4CCCCC4)nn23)cc1OCC | -18.4%
CCN(CC(=O)N1CCCC1)S(=O)(=O)c1ccc(OC)cc1 | 19.8%
O=C(Nc1ccc(F)cc1)c1cc(Cl)sc1Cl | 14.5%
CC(=O)c1cccc(NC(=O)CSc2nc(=O)n(CCN3CCOCC3)c3c2CCCC3)c1 | -11.2%
O=C(Nc1ccc(-c2nc3ccccc3o2)cc1)c1cc(-n2cnnc2)ccc1Cl | -0.947%
